Results as given in PubChem BioAssay AID1346428 (National Center for Advancing Translational Sciences (NCATS), 2018).
The campaign covered roughly 48,000 compounds. About 1,200 (2.5%) were called active. Inconclusive results (about 2%) are left out.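 The calls were made as follows: active = activation of at least 60% and not above a set upper limit (about 1 call in 100 departs from these limits); inconclusive = activation of 40% to 60%, or above that upper limit; inactive = activation under 40%.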 The list shows a part of the results.

biological target: Probable G-protein coupled receptor 32 (Homo sapiens) (UniProt O75388); test: qHTS for Agonists of Human Resolvin D1 Receptor DRV1; conditions: CHO-K1 GPR32 beta-arrestin PathHunter luminescence, 90 min; at 76.9 µM; stronger effect = higher value; zero percent set by DMSO-only wells; also: 0% is about no effect
Method in brief: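 Readings come from a cell-based beta-arrestin complementation format: CHO-K1 GPR32 stable cells (2,500/well) treated 90 min with compounds, then beta-Gal substrate added for 1 h before chemiluminescence imaging.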

UniProt O75388, sequence (O75388 whole entry, looked up): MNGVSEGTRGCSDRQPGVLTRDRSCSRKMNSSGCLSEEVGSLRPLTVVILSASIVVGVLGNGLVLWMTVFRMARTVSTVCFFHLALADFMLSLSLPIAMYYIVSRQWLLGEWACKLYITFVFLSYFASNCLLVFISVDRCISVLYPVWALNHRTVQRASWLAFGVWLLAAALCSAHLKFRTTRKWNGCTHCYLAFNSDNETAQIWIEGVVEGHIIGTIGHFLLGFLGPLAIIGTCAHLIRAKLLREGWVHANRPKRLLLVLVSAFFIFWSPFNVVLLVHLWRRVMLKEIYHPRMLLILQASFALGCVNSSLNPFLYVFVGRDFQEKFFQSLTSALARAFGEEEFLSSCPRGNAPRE

activation, inactive:
CCc1ccc(S(=O)(=O)c2nnn3c2nc(NC(C)C)c2cc(Cl)ccc23)cc1 -18.1%
CC1CCc2cc(F)cc3c(=O)c(C(=O)O)cn1c23 (centres undefined) -40.3%
COc1ccccc1CNC(=O)c1ccc(CS(=O)c2ccccc2Cl)o1 (centres undefined) -16.7%
CC12CN3CC(c4ccccc4)(CN(C1)C3c1ccc(Cl)cc1)C2=O (centres undefined) 8.63%
CC(=O)c1cc(-c2ccccc2)n(CCC(=O)NC2CCCCC2)c1C -9.95%
O=C(NCC1CCCCN1)c1cc(OCC(F)(F)F)ccc1OCC(F)(F)F (centres undefined) -6.81%
CCc1ccc(NC(=O)C2CCN(S(=O)(=O)c3c(C)noc3C)CC2)cc1 -8.42%
CCCCOc1ccc(OCCCN2CCOCC2)cc1 3.77%
CCC(=O)Nc1ccccc1-c1nc2ccccc2n(CC(=O)Nc2ccc(C)c(C)c2)c1=O 5.07%
COc1ccc(C2=NN(CC(=O)NCCc3ccccc3)C(=O)CC2)cc1 -22.5%
Cn1c(=O)c2cc(C(=O)Nc3cccc(C#N)c3)sc2c2ccccc21 10.2%
COC(=O)c1ccc(NC(=O)NC(C)c2c(-n3cccc3)sc(C)c2C)cc1 (centres undefined) -21.6%
O=C(NC1CCCC1)c1ccc(CSc2nc3cccnc3n2Cc2ccccc2)cc1 -3%
COc1ccc(CCNC(=O)CSCc2nc(-c3cccc(C)c3)oc2C)cc1OC 4.99%
O=C(NCc1ccccc1)c1ccc2c(c1)N(Cc1ccc(F)cc1)CCS2 -21.1%
COc1ccc(Cl)cc1NC(=O)c1sc2nc(-c3ccc(OC)c(OC)c3)ccc2c1N 8.56%
O=C(COc1ccc(Cl)cc1)Nc1ccc(-c2nc3cc(Cl)ccc3o2)c(O)c1 -14.2%
COC(=O)c1sc2cccc(F)c2c1S(=O)(=O)Nc1cc(C)c(Cl)cc1OC -18.1%
CCc1cccc(C)c1NC(=O)CN1C(=O)c2ccccc2Sc2ncccc21 -7.03%
CCCNC(=O)C1CCC(Cn2c(=O)c3sccc3n(CC(=O)N3CCCC3)c2=O)CC1 (centres undefined) -1.26%
CN[C@@H]1[C@@H](O)[C@@H](O[C@@H]2[C@H](O)[C@H](O[C@H]3OC(CN)=CC[C@H]3N)[C@@H](N)C[C@H]2N)OCC1(C)O (some centres undefined) -8.78%
COc1ccc(CNC(=O)c2cc3oc4ccccc4c3n2C)cc1OC 3.55%
CCCNC(=O)CN1C(=O)c2c(c3ccccc3n2C)C1c1ccc(OC)cc1 (centres undefined) -16.5%
Cc1c(C(=O)Nc2cccc(C#N)c2)sc2nc3n(c(=O)c12)CCCCC3 3.44%
CCc1ccc(S(=O)(=O)c2nnn3c2nc(N2CCC(C(N)=O)CC2)c2cc(Cl)ccc23)cc1 -25.5%
CCOC(=O)c1ccc(N2C(=O)c3n[nH]c(-c4cccs4)c3C2c2ccc(OC)cc2OC)cc1 (centres undefined) -7.19%
CC(C)c1ccc(C2=NC(c3ccncc3)=Nc3ccc(F)cc3N2)cc1 6.14%
O=C(Nc1nc2c(s1)CCCC2)c1ccccc1F -7.97%
Cc1ccc(NC(=O)c2ccc(N(Cc3ccccc3)S(C)(=O)=O)cc2)cc1 -6.76%
COc1ccc(OC)c(CCNC(=O)c2nn(C)c3c2CSc2ccccc2-3)c1 -17.7%
CNC(=O)c1ccc2nc(Cc3ccccc3)oc2c1 8.97%
CCOC(=O)c1c(S(=O)(=O)N2CCN(c3cccc(C(F)(F)F)c3)CC2)c(C)n(C)c1C 12.2%
CCCn1cc(S(=O)(=O)c2ccc(CC)cc2)c(=O)c2cc(F)c(N3CCN(C)CC3)cc21 -0.365%
CCOc1ccc(Cn2c(CNS(=O)(=O)c3ccc(CC)cc3)nc3cccnc32)cc1 -21.7%
CCOC(=O)N1CCC(NC(=O)c2ccc3c(c2)N(Cc2ccc(Cl)cc2)C(=O)c2ccccc2S3(=O)=O)CC1 -12.5%
Cc1ccc(C(=O)c2oc3ccccc3c2NC(=O)C(C)Oc2ccccc2Cl)cc1 (centres undefined) -7.84%
CCC1CCc2c(sc(NC(=O)C3c4ccccc4Oc4ccccc43)c2C(=O)OC)C1 (centres undefined) 13.1%
CC(C)c1ccc2oc(-c3ccc(Cl)c(NC(=O)Cc4ccccc4)c3)nc2c1 1.75%
Cc1cc(Br)ccc1NC(=O)CCNS(=O)(=O)c1cccc2nonc12 -4.21%
COc1ccc(NC(=O)c2c(NCc3cccs3)sc3c2CCCCC3)c(OC)c1 20.3%
O=C(Nc1ccc(Br)cc1F)c1cc2nc(-c3ccco3)cc(C(F)(F)Cl)n2n1 -26.5%
O=C(Cn1cc(SCc2ccccc2F)c2ccccc21)N1CCCC1 -20.1%
CCOc1ccc(OCC)c(Nc2nc3ccc(C(=O)c4ccccc4)cc3n3cnnc23)c1 -13.1%
O=S(=O)(c1ccc(OC(F)(F)F)cc1)N1CCC(c2nc3ccccc3s2)CC1 0.658%
CCCOc1ccc2nc(NC(=O)OC)[nH]c2c1 33.1%
COc1ccc2c(c1)CC(C(=O)Nc1ccc(OC)cc1OC)CO2 (centres undefined) -18.5%
CCOC(=O)c1cccc(NC(=O)N2CCC(CN3CCc4ccccc4C3)CC2)c1 -27.1%
FC(F)(F)c1cccc(N2CCN(Cc3nnc(-c4ccc5c(c4)OCO5)o3)CC2)c1 -13.9%
O=C(Cc1ccc(F)cc1)NCc1nc2cccnc2n1Cc1ccc(F)cc1 -14.8%
Cc1ccccc1C(=O)Nc1ccc2nc(Nc3cccc(C(F)(F)F)c3)cc(C)c2c1 25.1%
CCOc1ccc(S(=O)(=O)c2c[nH]c3ccccc3c2=O)cc1 2.43%
COc1ccc(CCNC(=O)C2CCN(c3ncnc4c3nc3n4CCCCC3)CC2)c(OC)c1 7.54%
CCOC(=O)c1cccc(NC(=O)N2CC(CC)Sc3ccccc32)c1 (centres undefined) -36.8%
COc1cccc(-c2nc(SCC(=O)NCC3CCCO3)c(-c3ccc(F)cc3)[nH]2)c1 (centres undefined) -19.3%
